Reference: PubChem BioAssay AID1347120 (National Center for Advancing Translational Sciences (NCATS), 2019)
Among all 390,000 compounds or so, about 930 (0.24%) were called active. Inconclusive results, whose numbers are uncertain, are shown with a selection of clear calls. Calls come from the whole dose curve; as a rule, active = well fitted activation curve with a large enough effect; inconclusive = small, poorly fitted or top-dose-only effect; inactive = no such curve, though single readings can be large or run the other way. A potency beside an inconclusive call is a rough fit, not a confirmed value.

test: qHTS for Suppressors of FUS Proteinopathy: Primary screen using FUS-linked yeast assay; note: nearly all actives have a fitted effect of over 55% in size;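 for growth rescue (activation): plate controls were DMSO vehicle for no effect and reference control for full effect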; details: S. cerevisiae FUS-expressing, OD600, 24 h; Potency: growth rescue; growth rescue (activation): at 76.6 µM (top of the series)
Method in brief: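 Yeast FUS proteinopathy model; galactose-induced FUS (2%), starting OD 0.005. Cpds in dilution series, 24hr, 30C, 99% humidity. Abs 600 nm growth. Pos ctrl CP55940 (top 92uM final); neg ctrl DMSO.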
Potency is the fitted concentration of half-maximal effect; tags give direction and shape of the fitted curve.

Row | SMILES | Potency | growth rescue (activation)
1 | CCn1c(SCc2nc(-c3ccccc3)no2)nnc1-c1ccco1 | inactive | 
2 | O=C(Cc1ccc(S(=O)(=O)N2CCOCC2)s1)Nc1nc2c(s1)CCCC2 | active: 8.91 µM | 
3 | O=C1CCSC2(C(=O)N(Cc3ccccc3)c3ccccc32)N1c1ccccc1 (stereo not drawn) | inconclusive: 31.6 µM [activator, single point] | 
4 | COC(=O)c1ccc(CNC(=O)C23CC4CC(CC(C4)C2)C3)cc1 | inactive | 
5 | C=CC[C@@H](Cc1ccc(F)cc1)C(=O)OC[C@H]1CCCN1C(=O)[C@@H](CC=C)CC(=O)N[C@@H](CO)Cc1ccccc1 | inconclusive: 15.8 µM [activator, single point] | 
6 | Cc1cc(S(=O)(=O)NCCc2csc(-c3cccc(F)c3)n2)ccc1F | inactive | 
7 | Cc1nnc(NC(=O)CSc2nnc(Cc3cccn3C)n2CCc2ccccc2)s1 | inconclusive: 3.55 µM [activator, full curve, poor fit] | 
8 | Cn1c(=O)c2c(nc(Br)n2CC(=O)c2cccs2)n(C)c1=O |  | inconclusive: -15.2% [activator]
9 | COc1ccc(/C=C2\SC(N3CCCCC3)=NC2=O)cc1 | inactive | 
10 | Cc1c(NC(=S)N/N=C/C=C/c2ccc([N+](=O)[O-])cc2)c(=O)n(-c2ccccc2)n1C | inconclusive: 3.98 µM [activator, single point] | 
11 | CCN(CC)S(=O)(=O)c1ccc2c(c1)c(=O)c(C(=O)N1CCN(c3ccccc3OC)CC1)cn2C | inconclusive: 2.82 µM [activator, full curve] | 
12 | Cc1ccc(C=NNC(=O)c2cc(-c3cccnc3)nc3ccccc23)o1 | inconclusive: 39.8 µM [activator, partial curve, poor fit] | 
13 | COc1ccc(-c2nnc(CSc3nc4ccccc4c(=O)n3CC(C)C)o2)cc1OC | inconclusive: 14.1 µM [activator, partial curve] | 
14 | CCOC(=O)c1c(NC(=O)COC(=O)CCOc2ccc(C)cc2)sc(C(=O)N(C)C)c1C | inconclusive: 28.2 µM [activator, partial curve, poor fit] | 
15 | C[C@H](CCC(=O)O)[C@H]1CC[C@H]2[C@@H]3[C@H](O)C[C@@H]4C[C@H](O)CC[C@]4(C)[C@H]3CC[C@]12C | inconclusive: 14.1 µM [activator, partial curve, poor fit] | 
16 | CN(C(=O)CSc1nc2ccc(NC(=O)c3cccs3)cc2s1)c1ccccc1 | inconclusive: 31.6 µM [activator, single point] | 
17 | CC1Cc2ccccc2N1C(=O)CSC1=NCCS1 (stereo not drawn) | inactive | 
18 | COc1ccc(C(=O)C2(C(=O)Nc3cc(C)cc(C)c3)CC(c3ccccc3C(F)(F)F)=NO2)cc1 (stereo not drawn) | inactive | 
19 | CC(C)(C)[C@@H]1COC(=O)[C@@H](Cc2ccc(F)cc2)C/C=C\C[C@H](CC(=O)N(CCO)Cc2ccccc2)C(=O)N1 | inconclusive: 22.4 µM [activator, partial curve] | 
20 | O=C1CN(C(=O)c2c(F)cccc2Cl)C(c2ccc(F)cc2)c2cc(Br)ccc2N1 (stereo not drawn) | inconclusive: 44.7 µM [activator, single point] | 
21 | O=C(N/N=C\C=C\c1ccco1)c1cc(-c2ccc3ccccc3c2)n[nH]1 | inconclusive: 3.98 µM [activator, full curve] | 

Row | SMILES | Potency | growth rescue (activation)
22 | Cc1ccc(NC(=O)C2CCCN(S(=O)(=O)c3ccc4c(c3)CCCC(=O)N4)C2)cc1N(C)C (stereo not drawn) | inactive | 
23 | COCCn1c(C)nc2oc3ccc(Br)cc3c(=O)c2c1=O | inconclusive: 31.6 µM [activator, single point] | 
24 | Cc1ccc(C(C)C)c(OCc2nn(CC(=O)c3ccc(Cl)cc3)c3[n+]2CCCCC3)c1 | inconclusive: 7.94 µM [activator, partial curve] | 
25 | Cc1ccc(NC(=O)CNC(=O)c2ccco2)cc1Cl | inactive | 
26 | COc1ccc2cc(C(=O)C3CCCN(C(=O)c4snnc4C)C3)ccc2c1 (stereo not drawn) | inconclusive: 22.4 µM [activator, partial curve, poor fit] | 
27 | O=C(NCc1ccccc1)c1nc(-c2ccc(Cl)cc2)n2c1CCCCC2 | inconclusive: 35.5 µM [activator, single point] | 
28 | CCOC(=O)c1c(NC(=O)CSc2cn(CCNC(=O)c3ccc(OCC)cc3)c3ccccc23)sc2c1CCC2 | inconclusive: 50.1 µM [activator, single point] | 
29 | Cn1c(=O)c(Nc2ccc(O)cc2)c2c3c(cccc31)C(=O)c1ccccc1-2 | inconclusive: 25.1 µM [activator, partial curve, poor fit] | 
30 | Cc1cn2c(-c3ccncc3)nnc2s1 | inconclusive: 11.2 µM [activator, single point] | 
31 | COCCn1c(C)cc(C2=NNC(=NC(C)(C)C)SC2)c1C | inconclusive: 39.8 µM [activator, partial curve, poor fit] | 
32 | CCCOc1ccccc1NC(=O)/C=C/c1ccc(OC)c(S(=O)(=O)N2CCOCC2)c1 | inconclusive: 28.2 µM [activator, single point] | 
33 | CCOc1ccc(CCNC(=O)c2nn(C)c3c2CSc2ccc(C)cc2-3)cc1OCC | inactive | 
34 | CN1CCN(C(=O)CN(Cc2ccccc2)S(C)(=O)=O)CC1 | inconclusive: 56.2 µM [activator, partial curve, poor fit] | 
35 | CCCCCCc1nc(C(N)=O)c2[nH]c(=O)n(-c3ccc(OC)cc3OC)c2n1 | inconclusive: 50.1 µM [activator, single point] | 
36 | S=C(NCCSCc1c(Cl)cccc1Cl)Nc1ccccc1 | inactive | 
37 | Clc1ccc(CSc2nnc(-c3ccccn3)n2Cc2cccs2)cc1Cl | inconclusive: 17.8 µM [activator, partial curve, poor fit] | 
38 | Cc1cc(=O)oc2cc(OCC3CC(c4ccc(Cl)cc4)=NO3)ccc12 (stereo not drawn) | inconclusive: 0.891 µM [activator, full curve, poor fit] | 
39 | O=C1CC(SC(=S)C2CCCC2=O)C(=O)N1 (stereo not drawn) | inactive | 
40 | COc1ccc(CCNC(=O)CS(=O)Cc2nc(-c3cccs3)oc2C)cc1OC (stereo not drawn) | inconclusive: 15.8 µM [activator, partial curve] | 
41 | COc1cccc(-c2nnc(SCC(=O)Nc3ccc(S(N)(=O)=O)cc3)n2C)c1 | inconclusive: 56.2 µM [activator, partial curve, poor fit] | 
42 | CCC1(c2ccccc2)NC(=O)N(CC(=O)N(C)CC(=O)Nc2c(C)cccc2C)C1=O (stereo not drawn) | inconclusive: 50.1 µM [activator, single point] | 

Row | SMILES | Potency | growth rescue (activation)
43 | Cc1ccc(NC(=O)CCc2nc3cccnc3n2-c2ccccc2)cc1Cl | inconclusive: 25.1 µM [activator, partial curve, poor fit] | 
44 | COc1ccc(N=Cc2oc3ccc4ccccc4c3c2O)cc1 | inactive | 
45 | Cc1ccccc1Nc1c(-c2c[nH]c3ccccc23)nc2cccc(C)n12 | inconclusive: 35.5 µM [activator, partial curve] | 
46 | CN(C(=O)COC(=O)C1CCN(S(=O)(=O)c2ccc3c(c2)OCCO3)CC1)C1CCS(=O)(=O)C1 (stereo not drawn) | inactive | 
47 | COc1cc(NC(=S)N2CCC(C(O)(c3ccccc3)c3ccccc3)CC2)cc(OC)c1 | inactive | 
48 | CCOC(=O)c1ccccc1NC(=O)CSc1ncc(C(=O)OCC)c(N)n1 | inactive | 
49 | CCn1c2c(c(=O)n3ncc(C(=O)Nc4ccc(Cl)cc4C)c13)CN(Cc1ccc(OC)cc1)CC2 | inconclusive: 28.2 µM [activator, single point] | 
50 | Cc1ccc(C)c(N2CCN(S(=O)(=O)c3ccc4c(c3)NC(=O)CO4)CC2)c1 | inconclusive: 28.2 µM [activator, single point] | 
51 | O=C1NC[C@H](CCCCN2C[C@H](Cc3ccccc3)N(CCc3ccc(O)cc3)C(=O)C2=O)N(CCC2CCCCC2)C1=O | inconclusive: 25.1 µM [activator, single point] | 
52 | CCOC(=O)c1ccc(NC(=O)CSc2ncc(S(=O)(=O)c3ccc(C)c(Cl)c3)c(=O)[nH]2)cc1 | inconclusive: 20 µM [activator, single point] | 
53 | c1ccc(-c2nc3ccccc3c3nncn23)cc1 | inactive | 
54 | Cn1c(SCC(=O)N/N=C/C=C\c2ccco2)nc2ccccc21 | inconclusive: 3.55 µM [activator, full curve, poor fit] | 
55 | CCOC(=O)Cn1c(-c2cccnc2Cl)nc2cc(C)c(C)cc21 | inactive | 
56 | Cc1c(C(=O)O)cccc1-c1ccc(/C=N/Nc2ccc(Br)cc2)o1 | inconclusive: 25.1 µM [activator, single point] | 
57 | Fc1ccccc1N1CCN(c2ncnc3c2nc2n3CCCC2)CC1 | inactive | 
58 | Clc1cccc(-n2ncc3c(NC4CCCCCC4)ncnc32)c1 | inactive | 
59 | O=C1CC(c2ccco2)Sc2nc3ccccc3n21 (stereo not drawn) | inconclusive: 28.2 µM [activator, single point] | 
60 | COc1ccc2c(c1)[C@H]1[C@H](CO2)[C@H](c2ccccc2)[C@]2(C)C(=O)Nc3ccc(Br)cc3C(=O)N12 | inconclusive: 17.8 µM [activator, partial curve, poor fit] | 
61 | CCn1cc2nc(SCC(=O)Nc3ccc(OC)cc3OC)n(Cc3ccc(Cl)cc3)c(=O)c2n1 | inconclusive: 6.31 µM [activator, full curve] | 
62 | CCOC(=O)[C@]12CCC=C1N(Cc1cccc3ccccc13)C(=O)[C@H](CC(=O)N1CCN(C(=O)C3CC3)CC1)C2 | inconclusive: 12.6 µM [activator, partial curve, poor fit] | 
63 | CCOC(=O)c1cc2c(=O)n3ccccc3nc2n(Cc2ccco2)c1=NC(=O)c1cccc(Br)c1 | inconclusive: 11.2 µM [activator, partial curve, poor fit] | 
